Source: the supplement of paper PMC11417369
± gives the standard deviation of the averaged measurements. This is one part of the list.

Test system: PfAP2-EXP AP2 domain (GST-tagged)
Assay: gcPBM binding intensity (ln(normalized median fluorescence intensity)); higher = stronger DNA binding
Procedure, shortened: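 An Agilent 4 × 180k array carrying primer-extended double-stranded 36-bp intergenic genomic probes and negative controls received GST-tagged P. falciparum DNA-binding domains expressed in E. coli, about 25 μg on average, for 1 h. The binding buffer contained 1× PBS, 1% milk, 0.2 mg/ml BSA, 0.5% salmon testes DNA and 0.03% Triton X-100. Binding intensity is the top Masliner-normalised natural-log median intensity across replicate spots of either probe orientation, read after Alexa488 anti-GST antibody staining and a 488 nm scan.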

Sequence | gcPBM binding intensity (ln)
TATTACTTTATATATACACACATATAACATAAATGC [CACACA_site3948] | 8.5 ± 0.3
ATATATATATATATATGTACATACAATTATATTCTC [XGTACX_site1133] | 10.2 ± 0.29
TACATAAATTTTAATACATGCAAATAAAATATATAA [TGCATGCA_site131] | 8.88 ± 0.4
AAAAATCATTTAAGAACACACAAATATTTCCATTAA [CACACA_site1488] | 8.18 ± 0.48
AATCTTCTTAATTGTAGTACACAATTTATAAACAAA [XGTACX_site8706] | 8.61 ± 0.3
AAAAAAAAAAAAAACACACACACATAGACCTCCAAT [CACACA_site3563] | 8.71 ± 0.57
ATAACGAACACTATTACACACATACATACATATGTA [CACACA_site5092] | 8.81 ± 0.41
TTTTTTGTTACAACAGTGCAAAAAAACCTTAATGTT | 8.4 ± 0.19
ATAAAAAATATCACATAAAATAAAAAAAGAAAGGAT [XGTACX_negctrl_site294] | 9.06 ± 0.52
TTTTAAAAAAAAAAAAAATAAGATAAAATTAAATAA [GTGCAC_negctrl_site367] | 8.11 ± 0.54
ATATATAAAAATAAATGTACATATTCATATGATGAT [XGTACX_site3411] | 8.62 ± 0.4
TATATATAAAAATATACACACTGTATTATTGTAATA [CACACA_site5959] | 8.23 ± 0.48
TATATATATACAGTAGTGCATATATTTAAAATATAT [GTGCAC_site9999] | 9.14 ± 0.33
TATATACATACATATTGTACTTATAAAGATTAATTT [XGTACX_site2203] | 8.23 ± 0.34
ATATAAGTATATCTATGTACATACAATATAAATGTA [XGTACX_site2153] | 8.46 ± 0.33
AATAGTTATTCCAGGTGTACATAACATATAATTTAC [XGTACX_site1340] | 8.59 ± 0.35
ATCAAAAGAAGACACACACACATACCTATAAATATA [CACACA_site7736] | 8.59 ± 0.45
TTATTATTATTACTTACGCACACTTTTTTTTTTATT [CACACA_site411] | 9.02 ± 0.35
ATAGGATATTATTCCTGTACATATATATATATATAT [XGTACX_site2108] | 10.1 ± 0.33
GACAATTATATGTAGGTGCATATACAAATTTTTTAA | 8.81 ± 0.099
TGTAATATATGTATTGCACACCTATAACCATTATTT [CACACA_site8422] | 8.62 ± 0.28
ATAATTATATTTAGTGGTACTACTTTTGATAATTAG [XGTACX_site6562] | 8.47 ± 0.33
TATAAGTGCCGTTATACACACGTTATATAAATATTA [CACACA_site4401] | 8.34 ± 0.19

Sequence | gcPBM binding intensity (ln)
AGTAGAATATCCCCTACACACCCAAGTAATTTACAA [CACACA_site6708] | 9.24 ± 0.82
AAATGTGAAAAAGAGTGTACCCGACTTGAAATTAAG [XGTACX_site8621] | 8.9 ± 0.38
TTTAATTTTCAATGGCGTACATATAAAATATTATAT [XGTACX_site1672] | 8.44 ± 0.38
AATTAAAAGTGAAGAGTGCATAGAATTTTTTACTTT [GTGCAC_site9973] | 8.55 ± 0.33
ATATGCACTTTTTGCACACGTATGAATAACAAAATA [CACACA_site1810] | 8.96 ± 0.15
GATGAATAATATGTATGTACATATGCATTATGATGT [XGTACX_site7655] | 8.72 ± 0.27
ACATATAGATAAATATGTACATATATATATATATAT [XGTACX_site1806] | 10 ± 0.41
TTATCATATCATGGAAGTACAAATAAAATATATAAC [XGTACX_site1608] | 9.02 ± 0.35
TTTTCTGTGTTTACATGTACGAAAGATTAATATTAT [XGTACX_site5214] | 8.71 ± 0.45
ATTTGATAGACACATGCACACATGCAATACTTTATT [CACACA_site5633] | 8.94 ± 0.35
ATATATATATATATATCACACATTAATAATATATAT [CACACA_site5081] | 10.1 ± 0.42
TACATACATACATACACACACATATAGATTTATATA [CACACA_site6999] | 9.02 ± 0.16
TATATAAAAATATACACACACAAATGTATATATATA [CACACA_site220] | 8.86 ± 0.13
ATCAATCATGGTTTTACACACACATGCATGTGAAAA [CACACA_site1350] | 9.28 ± 0.28
TTTTTTTTTTTTTTTAAACACACGGTGTGAAAATTA [CACACA_site3818] | 8.29 ± 0.49
ATAATTTTGTATAATTGTACATTATTTTAAATAAAT [XGTACX_site7952] | 8.28 ± 0.29
AAAACATAACATTGTTGTACTACTAATAAAATAAGT [XGTACX_site6149] | 8.7 ± 0.085
TCTTTATTATTCGCCACACACATATAAATATAAATA [CACACA_site7441] | 8.88 ± 0.38
TTCTTGTTCCTGAAAGTGCATATAACAAAAATAACA [GTGCAC_site9635] | 8.65 ± 0.21
ATAATTACATTCCATACACACATATATTTAAAGGTT [CACACA_site7403] | 8.59 ± 0.46
AATGATATATTTAAATGTACACATGAAATATAATAT [XGTACX_site2678] | 8.6 ± 0.3
TATCTTCAAGTATGTACACACTATATATAATAAAAT [CACACA_site5368] | 8.66 ± 0.31
TTATATTTGATAGTTTGTACATATAATTATTATCAT [XGTACX_site5676] | 8.7 ± 0.41

Sequence | gcPBM binding intensity (ln)
TCTTCTTTAAAAGAGGTGCACTATATAATGTGATTA [GTGCAC_site9431] | 8.89 ± 0.042
TAATTATACTTATTTTGTACGCAATATTTAAAATAA [XGTACX_site8516] | 8.54 ± 0.62
ACATATAAATGATATGTACACACATTTATATATATA [CACACA_site9152] | 8.85 ± 0.071
ATTTCTCTATCGTAATGTACAAAAAAAAGGAAAAAA [XGTACX_site1323] | 8.64 ± 0.54
TTTTTAACGTATAAGGTGCACTGTATATGGTACTCA | 9.39 ± 0.61
GACAAATGAAAAGATTGTACATGTATTTGAAGATTA [XGTACX_site6775] | 8.81 ± 0.38
TCTTTTATATTTTTTTGTACACAAGAATAAAGAAAA [XGTACX_site3394] | 8.62 ± 0.5
TGATTATATATAAATGTATGCATGTCTATTATGCTA [TGCATGCA_site543] | 8.43 ± 0.38
TACACAAAAATTTATACACACACATATATAATATAT [CACACA_site7931] | 8.49 ± 0.35
TATATATATATATATTGTACACATACATGTAGTTTT [XGTACX_site4848] | 10.2 ± 0.29
AAAGTAATATATAATACATGCGTAAATATTTATGTA [TGCATGCA_site254] | 8.86 ± 0.42
TATATATATATATAGGTGCAATATTGAAAAAATATC [GTGCAC_site9535] | 10.3 ± 0.21
TGCTTCTTTTAAAAACATGTTTGTATTCATTTTATA [CACACA_negctrl_site1627] | 8.97 ± 0.5
TTTTGGATGAACAGTACATGCAAAAACAAACTTGTA [TGCATGCA_site16] | 9.04 ± 0.43
ATTATATTATATATATGTACATATATATATCATAAT [XGTACX_site1] | 8.35 ± 0.23
ATAATACCATTAATTTGTACATATATATTATATATA [XGTACX_site4345] | 8.51 ± 0.35
ACAAAAAGTTACATACGTACGTAAAATTGTAATAAA [XGTACX_site2358] | 8.66 ± 0.23
TTTATTTTAAATTTACGTACATAATTAATCATATTT [XGTACX_site7529] | 8.56 ± 0.45
ATAAAAAATTAGGACTGTACATAATTTTTGTGATTT [XGTACX_site2857] | 8.46 ± 0.33
TATATATATAAGGATAGTACATATATTTATATGATT [XGTACX_site4954] | 9.15 ± 0.12
TTATATATTTCTATTGCACACTATATTTTATGAAGA [CACACA_site2910] | 8.76 ± 0.34
AGGTTATAATTGTTTTCACACATTTAAAAATGTTAT [CACACA_site5097] | 8.6 ± 0.4
TTAACTTATTTGTAAAGTACATTAATAAAAAGAAAA [XGTACX_site1588] | 8.47 ± 0.37

Sequence | gcPBM binding intensity (ln)
GACTACACACAAGGGTGTACATATATATTATATATA [XGTACX_site2247] | 8.38 ± 0.32
GTATAATAAATGATAGCACACATATGTACTTATATA [CACACA_site8188] | 8.57 ± 0.25
ATGAAATTTATATCATGTACATACAAGAGAAAAAAA [XGTACX_site3326] | 8.62 ± 0.42
AAAATTATAAAATGGGCACACATGAATATTGTAGTA [CACACA_site5261] | 8.62 ± 0.57
AAAAAAAAAATATACACACACACATACCCATAAATA [CACACA_site5981] | 8.73 ± 0.59
GATCGCATGAAATGAACACACATAAAAAAAATATAC [CACACA_site4087] | 8.88 ± 0.4
TTATAAAAATACAGTTAACACACATGTGTATATATA [CACACA_site9257] | 8.64 ± 0.35
AAAATAATCTTATGCACACCAAAAATTTATATAATC [CACACA_site1235] | 8.48 ± 0.32
TAATGCAACATTTATGTGCACATAAATATTTTTTAA | 8.6 ± 0.21
AAAACACAATTTATTACACACATATATTATAGATTA [CACACA_site6780] | 8.23 ± 0.45
TTTTTTTTTTATTCATGTACGTATTTAAATAATTCT [XGTACX_site2651] | 8.64 ± 0.41
GAGTTTTAATGTAATAGTACTTTAATTATTATATAT [XGTACX_site4527] | 8.49 ± 0.33
ATCTTTTATATATTCACACATAAAATTATACAGATA [CACACA_site5277] | 8.52 ± 0.42
TATTTTTATTTTACATTATTTGTTTATAATTCTTAA [CACACA_negctrl_site1358] | 8.5 ± 0.41
TGTATATACATAAAGTGTACGTATATTTATATATAT [XGTACX_site4320] | 8.63 ± 0.25
ATATATATATATAATGCACACATTATAAATTATGTA [CACACA_site5802] | 9.97 ± 0.2
AATAAATAAATAAATATATATATATATATATATATA [CACACA_negctrl_site708] | 10.1 ± 0.41
AAAAAAAAAAAAAACACACAAACAAATGAATAAATA [CACACA_site3300] | 8.5 ± 0.72
AACAAAAGAAAAAAATATATATATTCGTCCTATTTT [CACACA_negctrl_site444] | 8.33 ± 0.48
CATCTGGTATCTAATAGTACATATATATAATATCTT [XGTACX_site2774] | 8.46 ± 0.4
TTAAAAAATATATACGTTGATATAATACAACTTGAC [CACACA_negctrl_site1551] | 8.36 ± 0.29
